{"source": "PubChem BioAssay AID1468", "about": "(National Center for Advancing Translational Sciences (NCATS), 2008)", "note": "Out of some 280,000 compounds screened, about 1,100 (0.39%) were called active. Inconclusive results, whose numbers are uncertain, are shown with a selection of clear calls. The call rests on the fitted dose curve; in most records, active means well fitted inhibition curve with a large enough effect; inconclusive means small, poorly fitted or top-dose-only effect, or effect the other way; inactive means flat fitted curve, though single readings scatter. Potencies of inconclusive entries are left out as doubtful fits. Potency means the concentration at half of the fitted maximal effect; tags describe the fitted curve by direction and shape."}
{"molecular_target": "Microtubule-associated protein tau (Homo sapiens) (UniProt P10636)", "sequence (P10636 whole entry, looked up)": "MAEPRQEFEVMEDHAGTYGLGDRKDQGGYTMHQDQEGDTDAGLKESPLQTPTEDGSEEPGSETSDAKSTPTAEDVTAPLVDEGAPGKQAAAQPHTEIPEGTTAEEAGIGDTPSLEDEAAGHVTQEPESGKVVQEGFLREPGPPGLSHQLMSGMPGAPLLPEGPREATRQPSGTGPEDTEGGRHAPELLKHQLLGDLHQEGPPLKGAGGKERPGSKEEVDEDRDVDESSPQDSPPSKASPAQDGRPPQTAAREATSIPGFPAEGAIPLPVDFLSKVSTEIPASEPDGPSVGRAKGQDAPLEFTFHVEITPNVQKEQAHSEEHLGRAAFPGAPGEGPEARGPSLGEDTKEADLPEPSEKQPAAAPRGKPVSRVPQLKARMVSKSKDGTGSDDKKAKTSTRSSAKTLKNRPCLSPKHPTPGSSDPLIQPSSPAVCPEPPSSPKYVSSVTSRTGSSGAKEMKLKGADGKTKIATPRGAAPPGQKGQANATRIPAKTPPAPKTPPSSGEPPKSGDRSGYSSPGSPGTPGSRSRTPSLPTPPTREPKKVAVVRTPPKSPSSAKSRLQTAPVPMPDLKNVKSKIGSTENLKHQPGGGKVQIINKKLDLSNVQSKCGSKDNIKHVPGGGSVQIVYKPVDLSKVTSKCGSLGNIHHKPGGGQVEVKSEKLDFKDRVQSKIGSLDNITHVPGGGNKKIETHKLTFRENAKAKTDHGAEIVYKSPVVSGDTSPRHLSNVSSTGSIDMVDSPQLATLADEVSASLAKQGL", "experiment": "qHTS for Inhibitors of Tau Fibril Formation, Fluorescence Polarization; further: nearly all actives have a fitted effect of over 55% in size", "conditions": "K18 P301L tau heparin fibrillization, Alexa594 FP, 6 h; series mostly up to 57.7 µM", "in_short": "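FP of Alexa 594-tau after heparin (20 uM) induction. Substrate: human K18 P301L, 15 uM unlabeled, 0.24 uM labeled. Buffer 100 mM sodium acetate pH 7. 6 hr, 37 C.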"}
{"smiles": "Cc1cc2cc(NC(=O)c3ccco3)ccc2[nH]1", "Potency": "inconclusive [activator, single point]"}
{"smiles": "CN(c1ccccc1)S(=O)(=O)c1cccc(NC(=O)Cc2c(F)cccc2Cl)c1", "Potency": "inconclusive [inhibitor, partial curve]"}
{"smiles": "COc1ccccc1/C=C/C1(C(=O)NC2CCCC2)CC(=O)N1c1ccc(F)cc1", "note": "(stereo not given)", "Potency": "inactive"}
{"smiles": "CC(=O)c1ccc(S(=O)(=O)N2CCn3cccc3C2c2ccc(F)c(F)c2)cc1", "note": "(stereo not given)", "Potency": "inconclusive [inhibitor, partial curve]"}
{"smiles": "N#Cc1cc(-c2ccccc2)nc(Oc2ccc(Cl)cc2)n1", "Potency": "inconclusive [inhibitor, single point]"}
{"smiles": "COc1cccc(NC(=O)C2CCN(S(=O)(=O)c3c(C)noc3/C=C/c3cccs3)CC2)c1", "Potency": "inconclusive [inhibitor, partial curve]"}
{"smiles": "O=C(COc1ccccc1Cl)Nc1nc(-c2ccc(F)cc2)ns1", "Potency": "inconclusive [inhibitor, partial curve]"}
{"smiles": "CCN1CCN(c2cc(C)c3cc(NC(=O)/C=C/c4ccc(OCCC(C)C)cc4)ccc3n2)CC1", "Potency": "inactive"}
{"smiles": "FC(F)(F)c1cccc(-n2c(Cn3nnc4ccccc43)n[nH]c2=S)c1", "Potency": "inactive"}
{"smiles": "COc1ccc2c(c1)CC(NC(=O)Nc1ccc(Br)c(C)c1)CO2", "note": "(stereo not given)", "Potency": "inactive"}
{"smiles": "O=C(NC(=S)Nc1ccc(N2CCCCC2)cc1)c1cccs1", "Potency": "inconclusive [activator, single point]"}
{"smiles": "Cc1c(N/C=C(\\Cl)C(=O)C(F)(F)F)c(=O)n(-c2ccccc2)n1C", "Potency": "inconclusive [inhibitor, full curve, poor fit]"}
{"smiles": "COc1ccc(C(=O)Nc2nonc2-c2ccc(OC)c(OC)c2)cc1Cl", "Potency": "inconclusive [inhibitor, single point]"}
{"smiles": "CC(C)(C)c1nnc(N/N=C/c2ccccc2O)n(N)c1=O", "Potency": "inactive"}
{"smiles": "COc1ccc(-c2nnc(SCC(=O)Oc3cc(C)ccc3C)o2)cc1", "Potency": "inactive"}
{"smiles": "CC(C)(C)NS(=O)(=O)c1ccc(NC(=O)c2cc(-c3ccccc3)nc3ccccc23)cc1", "Potency": "inconclusive [inhibitor, single point]"}
{"smiles": "[S-]C(=Nc1ccc(Cl)cc1)N[n+]1ccccc1", "Potency": "inactive"}
{"smiles": "Cc1ccc(C)c(NC(=O)Cn2cc(S(=O)(=O)NC(C)C)c(S(=O)(=O)NC(C)C)c2)c1", "Potency": "inactive"}
{"smiles": "O=[N+]([O-])c1ccc2c(c1)[nH]c(=S)n2-c1ccccc1", "Potency": "inactive"}
{"smiles": "COCCn1c(C)cc(C(=O)CSc2nc3ccccc3c(=O)n2Cc2ccco2)c1C", "Potency": "inconclusive [inhibitor, full curve, poor fit]"}
{"smiles": "Nc1nnc2c(n1)CCCC2", "Potency": "inconclusive [inhibitor, single point]"}
{"smiles": "CC(C)C1S/C(=N/N=C/c2cccs2)NC1=O", "note": "(stereo not given)", "Potency": "inactive"}
{"smiles": "Cc1cccc(NC(=O)c2onc3c2CCCC3)c1C", "Potency": "inactive"}
{"smiles": "CCSc1nnc(-c2ccccc2N=Cc2c(C)[nH]n(-c3ccccc3)c2=O)c(=O)[nH]1", "Potency": "inconclusive [inhibitor, single point]"}
{"smiles": "O=C(CN1CCCC1)N1CCCc2c1c(=O)oc1ccc(OCc3ccccc3)cc21", "Potency": "inconclusive [inhibitor, single point]"}
{"smiles": "Brc1ccc(C2Nc3cccc4cccc(c34)N2)o1", "Potency": "inconclusive [inhibitor, full curve, poor fit]"}
{"smiles": "Cc1ccc(NS(=O)(=O)c2ccc(C(=O)OCC(=O)Nc3cc(C)on3)cc2)cc1", "Potency": "inconclusive [inhibitor, single point]"}
{"smiles": "CSc1ccc(CCNC(=O)Cn2ncc3c([nH]c4ccccc43)c2=O)cc1", "Potency": "inconclusive [inhibitor, single point]"}
{"smiles": "O=C1CCCc2[nH]c(-c3ccccc3)nc21", "Potency": "inactive"}
{"smiles": "CO/N=C/C1CCN(c2ncc(C(F)(F)F)cc2Cl)C1=O", "note": "(stereo not given)", "Potency": "inactive"}
{"smiles": "COC(=O)c1[nH]c2ccc(C)cc2c1NC(=O)CN1CCCC(C)(C)C1", "Potency": "inconclusive [activator, partial curve, poor fit]"}
{"smiles": "C=CCn1c(=NC(=O)c2ccc(S(=O)(=O)N3CCCC3)cc2)sc2cc(NC(C)=O)ccc21", "Potency": "inconclusive [inhibitor, single point]"}
{"smiles": "CN1CCN(c2nc3c(c(=O)n(C)c(=O)n3C)n2Cc2cccc3ccccc23)CC1", "Potency": "inactive"}
{"smiles": "COP(=O)(OC)c1nc(-c2cccc3ccccc23)oc1NCCc1ccccc1", "Potency": "inactive"}
{"smiles": "COc1ccc(COC(=O)N/C=C/c2ccco2)cc1", "Potency": "inconclusive [inhibitor, single point]"}
{"smiles": "CC(=O)c1ccc(NC(=S)NC(C)CCc2ccccc2)cc1", "note": "(stereo not given)", "Potency": "inconclusive [inhibitor, partial curve]"}
{"smiles": "C=CCc1c(C)nc(C)nc1N/N=C/c1ccccc1O", "Potency": "inactive"}
{"smiles": "O=C(CCNS(=O)(=O)c1ccc2c(c1)CCN2C(=O)C1CC1)Nc1ccc(Cl)cc1", "Potency": "inconclusive [inhibitor, single point]"}
{"smiles": "CCOc1cc(/C=N/Nc2nn3cnnc3c3ccccc23)ccc1O", "Potency": "inactive"}
{"smiles": "CC(=O)c1ccc(NC(=O)c2sc(-n3nc(C)c(Cc4ccc5c(c4)OCO5)c3C)nc2C)cc1", "Potency": "inconclusive [inhibitor, full curve, poor fit]"}
{"smiles": "CCC1CCCCN1CCCNC(=O)c1ccc2c(c1)N(Cc1cccc(Cl)c1)C(=O)c1ccccc1S2(=O)=O", "note": "(stereo not given)", "Potency": "inconclusive [inhibitor, full curve, poor fit]"}
{"smiles": "O=C(Nc1nc2ccccc2s1)C1CC(=O)N(c2ccc(Br)cc2)C1", "note": "(stereo not given)", "Potency": "inconclusive [inhibitor, single point]"}
{"smiles": "CCN(CC)S(=O)(=O)c1ccc(N/N=C(\\C)c2ccc(OC)cc2O)nc1", "Potency": "inconclusive [activator, partial curve]"}
{"smiles": "Cn1nnnc1NCc1c(F)cccc1Cl", "Potency": "inconclusive [inhibitor, single point]"}
{"smiles": "COc1ccc(-c2csc3nc(-c4ccccc4F)oc(=O)c23)cc1", "Potency": "inconclusive [inhibitor, partial curve, poor fit]"}
